Laboratory results as given in US20210268071A1 (CSL BEHRING LENGNAU, published 2021).
Blank lines part the entries; values can stand above or below the binder they belong to.

Columns and labels:
[1] = target: T1, rVIII-SingleChain (recombinant B-domain-deleted single chain Factor VIII) (Homo sapiens (Human), UniProt P00451 20-2351); test: SPR (Biacore T200), D′D3-FP captured via anti-albumin antibody, rVIII-SingleChain as analyte, single cycle kinetics, 25 °C; D′D3-FP dimer preparation
T1 construct: also called rFVIII-SingleChain; FVIII
T1 sequence: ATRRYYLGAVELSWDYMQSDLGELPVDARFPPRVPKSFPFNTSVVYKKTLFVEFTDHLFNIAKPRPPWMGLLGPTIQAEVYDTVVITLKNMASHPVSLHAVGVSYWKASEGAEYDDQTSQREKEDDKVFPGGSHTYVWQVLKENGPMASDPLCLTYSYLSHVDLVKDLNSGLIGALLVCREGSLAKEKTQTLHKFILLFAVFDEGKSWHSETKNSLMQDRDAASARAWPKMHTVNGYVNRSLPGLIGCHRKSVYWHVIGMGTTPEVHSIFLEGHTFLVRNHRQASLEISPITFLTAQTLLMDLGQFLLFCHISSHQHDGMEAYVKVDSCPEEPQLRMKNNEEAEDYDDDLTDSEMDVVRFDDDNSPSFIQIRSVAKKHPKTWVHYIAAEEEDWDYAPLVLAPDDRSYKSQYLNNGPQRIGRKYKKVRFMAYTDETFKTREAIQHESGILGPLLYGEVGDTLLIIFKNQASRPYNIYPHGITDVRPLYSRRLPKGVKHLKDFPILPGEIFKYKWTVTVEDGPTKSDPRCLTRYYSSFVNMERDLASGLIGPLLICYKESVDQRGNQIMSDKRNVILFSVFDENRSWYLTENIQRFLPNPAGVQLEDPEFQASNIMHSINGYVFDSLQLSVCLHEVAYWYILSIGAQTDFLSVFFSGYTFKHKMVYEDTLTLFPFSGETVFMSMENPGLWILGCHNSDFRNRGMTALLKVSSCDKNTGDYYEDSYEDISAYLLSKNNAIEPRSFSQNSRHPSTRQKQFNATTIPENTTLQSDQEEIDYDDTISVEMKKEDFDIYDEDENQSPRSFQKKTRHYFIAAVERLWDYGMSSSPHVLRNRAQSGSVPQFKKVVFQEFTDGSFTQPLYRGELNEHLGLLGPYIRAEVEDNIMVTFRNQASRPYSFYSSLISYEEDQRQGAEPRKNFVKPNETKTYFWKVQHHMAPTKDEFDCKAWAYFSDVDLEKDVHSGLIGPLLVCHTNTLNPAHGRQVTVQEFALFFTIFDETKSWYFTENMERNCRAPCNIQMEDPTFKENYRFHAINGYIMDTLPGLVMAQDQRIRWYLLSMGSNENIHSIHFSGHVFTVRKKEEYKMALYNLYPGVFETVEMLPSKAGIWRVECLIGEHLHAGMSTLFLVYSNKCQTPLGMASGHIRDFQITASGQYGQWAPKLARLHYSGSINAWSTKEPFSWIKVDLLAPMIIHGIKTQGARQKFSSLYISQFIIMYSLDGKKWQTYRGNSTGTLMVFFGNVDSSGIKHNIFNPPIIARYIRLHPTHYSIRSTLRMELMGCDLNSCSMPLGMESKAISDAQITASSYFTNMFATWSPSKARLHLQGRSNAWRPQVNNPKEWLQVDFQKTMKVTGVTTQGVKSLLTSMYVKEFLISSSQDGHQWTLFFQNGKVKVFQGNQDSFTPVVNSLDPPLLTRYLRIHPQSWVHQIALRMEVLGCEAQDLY
Method: (§1) A VWF fragment (1-1242) albumin fusion (D′D3-FP) was expressed in a bioreactor; after purification as described above and isolation of monomer and dimer, the affinity of FVIII to these preparations was assessed through surface plasmon resonance via a Biacore instrument (T200, GE Healthcare).
(§2) An anti-albumin antibody (MA1-20124, Thermo Scientific) was covalently coupled via its N-terminus to an activated CM 3 chip by NHS (N-Hydroxysuccinimide) and EDC (Ethanolamine hydrochloride), both contained in the amine coupling kit (BR1000-50) from GE Healthcare. For immobilization 3 μg/mL of the antibody were diluted in sodium acetate buffer (10 mM, pH 5.0) and the antibody solution was flown over the chip for 7 min. at a flow rate of 10 μL/min. After the immobilization procedure non-coupled dextran filaments were saturated by flowing ethanolamine solution (1 M, pH 8.3) over the chip for 5 min (at a flow rate of 10 μL/min). The aim of saturating the flow cell was to minimize unspecific binding of the analytes to the chip. A reference flow cell was set up by saturating an empty flow cell with ethanolamine by using the same procedure as above.
(§3) Dimeric and monomeric D′D3-FP proteins, respectively, were immobilized to the covalently coupled anti-albumin antibody by a flow of the D′D3-FP proteins (5 μg/mL) over the chip for 3 min (flow rate of 10 μL/min).

[2] = target: T1, rVIII-SingleChain (recombinant …); test: SPR (Biacore T200), D′D3-FP captured via anti-albumin antibody, rVIII-SingleChain as analyte, single cycle kinetics, 25 °C; D′D3-FP monomer preparation
Method: as §1, §2, §3

Kd [1]: 0.034 nM
B1: D′D3-FP dimer (VWF D′D3 albumin fusion protein, dimeric preparation) (other)
chain: SLSCRPPMVKLVCPADNLRAEGLECTKTCQNYDLECMSMGCVSGCLCPPGMVRHENRCVALERCPCFHQGKEYAPGETVKIGCNTCVCRDRKWNCTDHVCDATCSTIGMAHYLTFDGLKYLFPGECQYVLVQDYCGSNPGTFRILVGNKGCSHPSVKCKKRVTILVEGGEIELFDGEVNVKRPMKDETHFEVVESGRYIILLLGKALSVVWDRHLSISVVLKQTYQEKVCGLCGNFDGIQNNDLTSSNLQVEEDPVDFGNSWKVSSQCADTRKVPLDSSPATCHNNIMKQTMVDSSCRILTSDVFQDCNKLVDPEPYLDVCIYDTCSCESIGDCACFCDTIAAYAHVCAQHGKVVTWRTATLCPQSCEERNLRENGYECEWRYNSCAPACQVTCQHPEPLACPVQCVEGCHAHCPPGKILDELLQTCVDPEDCPVCEVAGRRFASGKKVTLNPSDPEHCQICHCDVVNLTCEACQEPGGSSGGSGGSGGSGGSGGSGGSGGSGGSGGSGS[gap - about 600 residues]
notes: It was expressed from VWF amino acids 1-1242 with the propeptide cleaved; In the SPR assay it was captured on an immobilised anti-albumin antibody; also called dimeric D′D3-FP; rD′D3-FP

Kd [2]: 30 nM
B2: D′D3-FP monomer (VWF D′D3 albumin fusion protein, monomeric preparation) (other)
chain: SLSCRPPMVKLVCPADNLRAEGLECTKTCQNYDLECMSMGCVSGCLCPPGMVRHENRCVALERCPCFHQGKEYAPGETVKIGCNTCVCRDRKWNCTDHVCDATCSTIGMAHYLTFDGLKYLFPGECQYVLVQDYCGSNPGTFRILVGNKGCSHPSVKCKKRVTILVEGGEIELFDGEVNVKRPMKDETHFEVVESGRYIILLLGKALSVVWDRHLSISVVLKQTYQEKVCGLCGNFDGIQNNDLTSSNLQVEEDPVDFGNSWKVSSQCADTRKVPLDSSPATCHNNIMKQTMVDSSCRILTSDVFQDCNKLVDPEPYLDVCIYDTCSCESIGDCACFCDTIAAYAHVCAQHGKVVTWRTATLCPQSCEERNLRENGYECEWRYNSCAPACQVTCQHPEPLACPVQCVEGCHAHCPPGKILDELLQTCVDPEDCPVCEVAGRRFASGKKVTLNPSDPEHCQICHCDVVNLTCEACQEPGGSSGGSGGSGGSGGSGGSGGSGGSGGSGGSGS[gap - about 600 residues]
notes: In the SPR assay it was captured on an immobilised anti-albumin antibody; also called monomeric D′D3-FP
